Laboratory results from the supplement of paper PMC12067093, “Discovery and optimisation of a covalent ligand for TRIM25 and its application to targeted protein ubiquitination” (Chemical Science, 2025).
Targets with the largest changes are over-represented here; the source holds about 21,000 in all.

Compound: CC1Cc2ccccc2N1C(=O)C1CCCN(C1)C(=O)CCl (mixture of isomers) [TRIM25 ligand 11 (diastereomer mixture)]
Assay: probe-labelled cysteine peptide fold change vs DMSO (competition) (log2 fold change); higher = less target engagement (more negative = stronger competition)
Details: 10 µM; THP-1; incubation time: 4 h
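Further: competitive chemoproteomic profiling in live THP-1 cells with an iodoacetamide desthiobiotin (IA-DTB) probe, comparing probe-labelled peptide intensities in compound-treated cells against DMSO-treated controls.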

Sequence of UniProt O00764 (O00764 whole entry, looked up): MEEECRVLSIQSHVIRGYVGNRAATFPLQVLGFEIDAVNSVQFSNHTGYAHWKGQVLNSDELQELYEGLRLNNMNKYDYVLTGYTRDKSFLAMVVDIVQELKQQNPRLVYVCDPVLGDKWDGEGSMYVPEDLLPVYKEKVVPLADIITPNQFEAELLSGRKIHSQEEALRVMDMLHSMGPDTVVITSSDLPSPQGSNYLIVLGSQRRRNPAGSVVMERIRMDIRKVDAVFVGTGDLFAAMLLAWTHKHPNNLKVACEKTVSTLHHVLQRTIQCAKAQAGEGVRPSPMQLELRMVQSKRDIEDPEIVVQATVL
Sequence of UniProt P56730 (P56730 whole entry, looked up): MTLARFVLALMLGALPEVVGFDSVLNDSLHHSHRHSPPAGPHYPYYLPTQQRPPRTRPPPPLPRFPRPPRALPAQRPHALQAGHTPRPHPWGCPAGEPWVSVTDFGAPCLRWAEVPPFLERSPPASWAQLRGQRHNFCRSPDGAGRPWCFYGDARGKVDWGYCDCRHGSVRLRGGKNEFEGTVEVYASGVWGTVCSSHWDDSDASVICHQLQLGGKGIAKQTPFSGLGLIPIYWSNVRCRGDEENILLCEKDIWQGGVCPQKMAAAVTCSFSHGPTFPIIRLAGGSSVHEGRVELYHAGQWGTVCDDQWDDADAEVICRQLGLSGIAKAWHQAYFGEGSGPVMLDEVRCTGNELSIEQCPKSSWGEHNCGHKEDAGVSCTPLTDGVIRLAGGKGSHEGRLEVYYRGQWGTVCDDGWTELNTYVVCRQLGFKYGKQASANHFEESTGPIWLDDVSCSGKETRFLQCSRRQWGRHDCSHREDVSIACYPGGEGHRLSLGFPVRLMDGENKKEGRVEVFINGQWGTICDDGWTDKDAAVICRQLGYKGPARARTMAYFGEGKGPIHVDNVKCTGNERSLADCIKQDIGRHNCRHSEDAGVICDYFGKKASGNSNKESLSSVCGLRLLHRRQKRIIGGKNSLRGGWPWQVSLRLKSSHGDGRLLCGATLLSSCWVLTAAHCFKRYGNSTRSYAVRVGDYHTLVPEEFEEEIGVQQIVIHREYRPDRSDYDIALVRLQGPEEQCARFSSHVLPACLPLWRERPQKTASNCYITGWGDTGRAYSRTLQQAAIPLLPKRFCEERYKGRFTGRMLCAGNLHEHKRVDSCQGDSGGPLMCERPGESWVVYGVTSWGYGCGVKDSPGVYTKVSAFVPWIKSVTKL
Sequence of UniProt Q9H307 (Q9H307 whole entry): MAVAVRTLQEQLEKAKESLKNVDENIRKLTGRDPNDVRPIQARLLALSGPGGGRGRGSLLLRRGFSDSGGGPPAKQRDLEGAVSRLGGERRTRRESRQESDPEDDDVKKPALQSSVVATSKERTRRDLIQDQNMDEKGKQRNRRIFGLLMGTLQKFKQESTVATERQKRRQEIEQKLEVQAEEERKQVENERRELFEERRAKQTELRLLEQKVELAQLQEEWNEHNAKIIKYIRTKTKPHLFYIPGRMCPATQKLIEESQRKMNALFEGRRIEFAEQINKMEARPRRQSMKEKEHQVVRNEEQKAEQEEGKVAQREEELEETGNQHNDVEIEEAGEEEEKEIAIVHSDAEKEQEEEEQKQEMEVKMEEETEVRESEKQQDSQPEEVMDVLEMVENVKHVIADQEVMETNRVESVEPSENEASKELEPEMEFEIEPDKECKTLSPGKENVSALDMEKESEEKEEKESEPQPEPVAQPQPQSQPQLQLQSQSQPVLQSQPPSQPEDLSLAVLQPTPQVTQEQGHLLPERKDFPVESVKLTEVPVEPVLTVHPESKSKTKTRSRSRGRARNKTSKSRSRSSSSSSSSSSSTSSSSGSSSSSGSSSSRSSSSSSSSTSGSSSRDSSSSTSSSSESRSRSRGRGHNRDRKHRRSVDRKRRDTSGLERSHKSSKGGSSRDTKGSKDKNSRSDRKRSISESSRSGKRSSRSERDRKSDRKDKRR
Sequence of UniProt O43314 (O43314 whole entry, looked up): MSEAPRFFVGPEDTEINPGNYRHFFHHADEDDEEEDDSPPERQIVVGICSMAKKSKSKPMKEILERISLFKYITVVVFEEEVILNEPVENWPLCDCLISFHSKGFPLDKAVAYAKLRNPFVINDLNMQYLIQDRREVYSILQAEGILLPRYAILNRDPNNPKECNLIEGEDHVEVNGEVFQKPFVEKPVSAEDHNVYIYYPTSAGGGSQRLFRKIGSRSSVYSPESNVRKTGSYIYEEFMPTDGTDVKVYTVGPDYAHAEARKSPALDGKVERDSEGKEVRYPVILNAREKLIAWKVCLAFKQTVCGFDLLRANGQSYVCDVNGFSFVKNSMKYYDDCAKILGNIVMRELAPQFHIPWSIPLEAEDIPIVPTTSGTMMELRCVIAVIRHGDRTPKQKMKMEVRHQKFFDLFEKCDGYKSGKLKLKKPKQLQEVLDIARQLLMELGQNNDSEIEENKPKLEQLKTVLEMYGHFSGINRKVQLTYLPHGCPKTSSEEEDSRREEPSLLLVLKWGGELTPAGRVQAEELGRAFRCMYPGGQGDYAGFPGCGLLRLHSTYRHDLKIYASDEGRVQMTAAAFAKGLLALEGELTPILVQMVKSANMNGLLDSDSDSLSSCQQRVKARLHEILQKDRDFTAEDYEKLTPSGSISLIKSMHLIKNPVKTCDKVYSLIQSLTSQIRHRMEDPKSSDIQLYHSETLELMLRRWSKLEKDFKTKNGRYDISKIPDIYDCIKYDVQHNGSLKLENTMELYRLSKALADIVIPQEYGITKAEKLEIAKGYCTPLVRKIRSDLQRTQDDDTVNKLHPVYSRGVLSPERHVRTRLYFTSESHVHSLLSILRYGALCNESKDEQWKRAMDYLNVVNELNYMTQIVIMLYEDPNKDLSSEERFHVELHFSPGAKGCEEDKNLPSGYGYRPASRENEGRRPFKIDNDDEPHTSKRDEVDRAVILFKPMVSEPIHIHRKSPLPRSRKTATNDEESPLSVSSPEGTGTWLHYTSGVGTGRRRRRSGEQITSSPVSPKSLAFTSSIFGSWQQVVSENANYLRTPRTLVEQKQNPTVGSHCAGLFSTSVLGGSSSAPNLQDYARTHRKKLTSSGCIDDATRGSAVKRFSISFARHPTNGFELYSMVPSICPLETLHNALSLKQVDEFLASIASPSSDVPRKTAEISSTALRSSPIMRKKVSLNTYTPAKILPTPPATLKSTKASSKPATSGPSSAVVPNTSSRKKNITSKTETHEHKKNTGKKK
Sequence of UniProt Q9BRX2 (Q9BRX2 whole entry, looked up): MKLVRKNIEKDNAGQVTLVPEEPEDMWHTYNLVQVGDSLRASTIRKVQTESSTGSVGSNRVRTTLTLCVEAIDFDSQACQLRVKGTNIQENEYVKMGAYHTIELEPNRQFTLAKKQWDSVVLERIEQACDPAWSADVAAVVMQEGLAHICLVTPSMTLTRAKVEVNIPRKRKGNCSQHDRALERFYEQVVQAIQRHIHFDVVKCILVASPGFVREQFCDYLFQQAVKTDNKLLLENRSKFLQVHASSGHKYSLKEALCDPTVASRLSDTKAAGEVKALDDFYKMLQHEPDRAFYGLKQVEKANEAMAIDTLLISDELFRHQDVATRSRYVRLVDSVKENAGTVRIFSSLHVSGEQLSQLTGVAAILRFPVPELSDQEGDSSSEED
Sequence of UniProt Q7RTV0 (Q7RTV0 whole entry, looked up): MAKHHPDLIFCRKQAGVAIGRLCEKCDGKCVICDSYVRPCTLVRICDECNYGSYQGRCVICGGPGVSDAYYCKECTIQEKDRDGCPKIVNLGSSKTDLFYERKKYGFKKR

Compared with “PMM2_O15305_136_SCSQEER (UniProt O15305)”, “POLA2_Q14181_392_HEQVENCLLTSPFEDIFK (UniProt Q14181)” is lower in “probe-labelled cysteine peptide fold change” value: 1.27 for the first, 0.268 for the second.

Compared with “PFN1_P07737_128_CYEMASHLRR (UniProt P07737)”, “PRPF39_Q86UA1_413_ACTIHLPK (UniProt Q86UA1)” is higher in “probe-labelled cysteine peptide fold change” value: -0.732 for the first, 0.0312 for the second.

First: PPT1_P50897_152_CPGESSHICDFIRK (UniProt P50897)
Second: PGK1_P00558_108_ACANPAAGSVILLENLR (UniProt P00558)
Sequence of UniProt P00558 (P00558 whole entry, looked up): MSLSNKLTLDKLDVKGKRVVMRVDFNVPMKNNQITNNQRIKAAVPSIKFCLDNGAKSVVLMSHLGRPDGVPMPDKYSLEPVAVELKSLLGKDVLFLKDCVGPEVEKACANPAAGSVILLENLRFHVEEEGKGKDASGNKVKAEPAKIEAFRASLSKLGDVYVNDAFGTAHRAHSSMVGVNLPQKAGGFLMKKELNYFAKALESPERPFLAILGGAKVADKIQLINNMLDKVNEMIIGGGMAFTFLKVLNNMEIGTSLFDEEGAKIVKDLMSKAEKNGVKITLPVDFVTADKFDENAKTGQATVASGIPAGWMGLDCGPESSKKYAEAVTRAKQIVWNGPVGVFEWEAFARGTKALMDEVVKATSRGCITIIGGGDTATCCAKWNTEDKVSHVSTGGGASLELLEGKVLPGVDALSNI
The “probe-labelled cysteine peptide fold change” value of the first is lower: -0.116 for the first, 0.0224 for the second.

Going from “POLD1_P28340_713_LPCLEISQSVTGFGR (UniProt P28340)” to PNN_Q9H307_249_MCPATQK (UniProt Q9H307), the “probe-labelled cysteine peptide fold change” value falls from 0.00388 to -0.29.

Going from “PPIP5K2_O43314_164_ECNLIEGEDHVEVNGEVFQKPFVEK (UniProt O43314)” to “PIP4P1_Q86T03_104_CGVCNEATPIK (UniProt Q86T03)”, the “probe-labelled cysteine peptide fold change” value falls from 0.0803 to -0.0166.

Going from “PHF5A_Q7RTV0_30+40_CVICDSYVRPCTLVR (UniProt Q7RTV0)” to “PRR14L_Q5THK1_1483_DTESCTSPCLLGAPR (UniProt Q5THK1)”, the “probe-labelled cysteine peptide fold change” value rises from -0.054 to -0.0458.

Going from “PLCG2_P16885_624_CAEFELR (UniProt P16885)” to “POLD1_P28340_263_FMVDTDIVGCNWLELPAGK (UniProt P28340)”, the “probe-labelled cysteine peptide fold change” value falls from 0.0558 to -0.011.

First: PRKDC_P78527_3683_ECSPWMSDFKVEFLRNELEIPGQYDGR (UniProt P78527)
Second: PPAN_Q9NQ55_73_DCVAVAGPLGVTHFLILSK (UniProt Q9NQ55)
The “probe-labelled cysteine peptide fold change” value of the first is lower: -0.7 for the first, -0.0887 for the second.

Compared with “PI4KA_P42356_1131_QNTTLGATQLSERPACVK (UniProt P42356)”, “PIK3CD_O00329_382_QRLEFDINICDLPR (UniProt O00329)” is higher in “probe-labelled cysteine peptide fold change” value: -0.0117 for the first, 0.0375 for the second.

First: PLPP6_Q8IY26_55_ATAVDPTCAR (UniProt Q8IY26)
Second: PEX5_P50542_11_ELVEAECGGANPLMK (UniProt P50542)
The “probe-labelled cysteine peptide fold change” value of the first is lower: 0.0708 for the first, 0.224 for the second.

Going from “PRMT7_Q9NVM4_366+368_QMRPVCDCQAHLLWNRPR (UniProt Q9NVM4)” to PDXK_O00764_5_MEEECR (UniProt O00764), the “probe-labelled cysteine peptide fold change” value rises from 0.0126 to 0.156.

First: PPIB_P23284_202_DVIIADCGKIEVEKPFAIAK (UniProt P23284)
Sequence of UniProt P23284 (P23284 whole entry, looked up): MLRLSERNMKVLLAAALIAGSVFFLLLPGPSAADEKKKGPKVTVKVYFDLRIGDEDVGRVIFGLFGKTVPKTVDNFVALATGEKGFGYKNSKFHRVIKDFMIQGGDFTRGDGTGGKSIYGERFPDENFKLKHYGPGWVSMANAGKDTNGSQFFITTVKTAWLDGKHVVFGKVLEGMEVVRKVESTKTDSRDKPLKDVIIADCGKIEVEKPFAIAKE
Second: PPP4R2_Q9NY27_22+30_EVCPVLDQFLCHVAK (UniProt Q9NY27)
The “probe-labelled cysteine peptide fold change” value of the first is lower: -0.714 for the first, -0.109 for the second.

Compared with “PPP6R1_Q9UPN7_216_DENQHSNASQSLCDIIR (UniProt Q9UPN7)”, “PREX1_Q8TCU6_1173_DSYSECNSNR (UniProt Q8TCU6)” is higher in “probe-labelled cysteine peptide fold change” value: 0.00266 for the first, 0.675 for the second.

First: PHIP_Q8WWQ0_522_CSPDGQHFACTDSHGHLLIFGFGSSSK (UniProt Q8WWQ0)
Second: PPP6R1_Q9UPN7_172_LLTCVERPQLR (UniProt Q9UPN7)
The “probe-labelled cysteine peptide fold change” value of the first is higher: 0.0707 for the first, 0.0673 for the second.

Going from “POLD1_P28340_1058_LWTQCQR (UniProt P28340)” to “PELO_Q9BRX2_175_GNCSQHDR (UniProt Q9BRX2)”, the “probe-labelled cysteine peptide fold change” value rises from -0.0348 to 0.379.

Compared with “PLA2G4A_P47712_634_DCPTIIHFVLANINFR (UniProt P47712)”, “PRSS12_P56730_739_LQGPEEQCAR (UniProt P56730)” is higher in “probe-labelled cysteine peptide fold change” value: -0.109 for the first, -0.0442 for the second.

Same assay, conditions: 50 µM; THP-1; incubation time: 4 h

Going from “PMM2_O15305_136_SCSQEER (UniProt O15305)” to “POLA2_Q14181_392_HEQVENCLLTSPFEDIFK (UniProt Q14181)”, the “probe-labelled cysteine peptide fold change” value falls from 0.84 to -0.00578.

Going from “PFN1_P07737_128_CYEMASHLRR (UniProt P07737)” to “PRPF39_Q86UA1_413_ACTIHLPK (UniProt Q86UA1)”, the “probe-labelled cysteine peptide fold change” value rises from -0.452 to 0.0595.

First: PPT1_P50897_152_CPGESSHICDFIRK (UniProt P50897)
Second: PGK1_P00558_108_ACANPAAGSVILLENLR (UniProt P00558)
The “probe-labelled cysteine peptide fold change” value of the first is higher: -0.113 for the first, -0.137 for the second.

Going from “POLD1_P28340_713_LPCLEISQSVTGFGR (UniProt P28340)” to PNN_Q9H307_249_MCPATQK (UniProt Q9H307), the “probe-labelled cysteine peptide fold change” value falls from 0.165 to -0.93.

Going from “PPIP5K2_O43314_164_ECNLIEGEDHVEVNGEVFQKPFVEK (UniProt O43314)” to “PIP4P1_Q86T03_104_CGVCNEATPIK (UniProt Q86T03)”, the “probe-labelled cysteine peptide fold change” value falls from 0.212 to 0.0399.

Compared with “PHF5A_Q7RTV0_30+40_CVICDSYVRPCTLVR (UniProt Q7RTV0)”, “PRR14L_Q5THK1_1483_DTESCTSPCLLGAPR (UniProt Q5THK1)” is lower in “probe-labelled cysteine peptide fold change” value: 0.00899 for the first, -0.271 for the second.

Compared with “PLCG2_P16885_624_CAEFELR (UniProt P16885)”, “POLD1_P28340_263_FMVDTDIVGCNWLELPAGK (UniProt P28340)” is lower in “probe-labelled cysteine peptide fold change” value: 0.0418 for the first, -0.00675 for the second.

Compared with “PRKDC_P78527_3683_ECSPWMSDFKVEFLRNELEIPGQYDGR (UniProt P78527)”, “PPAN_Q9NQ55_73_DCVAVAGPLGVTHFLILSK (UniProt Q9NQ55)” is higher in “probe-labelled cysteine peptide fold change” value: -0.257 for the first, 0.217 for the second.

First: PIK3CD_O00329_382_QRLEFDINICDLPR (UniProt O00329)
Second: PLPP6_Q8IY26_55_ATAVDPTCAR (UniProt Q8IY26)
The “probe-labelled cysteine peptide fold change” value of the first is higher: 0.229 for the first, -0.177 for the second.

First: PEX5_P50542_11_ELVEAECGGANPLMK (UniProt P50542)
Second: PRMT7_Q9NVM4_366+368_QMRPVCDCQAHLLWNRPR (UniProt Q9NVM4)
Sequence of UniProt Q9NVM4 (Q9NVM4 whole entry, looked up): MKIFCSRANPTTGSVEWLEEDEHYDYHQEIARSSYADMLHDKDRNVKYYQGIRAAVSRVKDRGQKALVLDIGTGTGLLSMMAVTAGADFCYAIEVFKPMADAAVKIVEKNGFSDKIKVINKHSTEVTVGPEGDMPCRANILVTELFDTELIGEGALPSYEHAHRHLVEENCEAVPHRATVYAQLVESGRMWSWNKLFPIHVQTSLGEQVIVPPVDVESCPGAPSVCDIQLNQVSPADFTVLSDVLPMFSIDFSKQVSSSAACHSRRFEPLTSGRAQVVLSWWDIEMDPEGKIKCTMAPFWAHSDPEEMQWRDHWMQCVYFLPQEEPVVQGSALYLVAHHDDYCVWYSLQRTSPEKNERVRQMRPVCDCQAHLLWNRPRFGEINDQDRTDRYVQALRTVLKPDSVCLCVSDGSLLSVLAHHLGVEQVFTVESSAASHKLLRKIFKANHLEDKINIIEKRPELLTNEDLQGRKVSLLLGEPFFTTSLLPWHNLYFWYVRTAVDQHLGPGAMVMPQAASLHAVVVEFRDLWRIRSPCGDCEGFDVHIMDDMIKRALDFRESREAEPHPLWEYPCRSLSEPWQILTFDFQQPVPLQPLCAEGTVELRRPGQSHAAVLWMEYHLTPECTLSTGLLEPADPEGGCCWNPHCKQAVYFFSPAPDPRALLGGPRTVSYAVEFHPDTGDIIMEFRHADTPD
The “probe-labelled cysteine peptide fold change” value of the first is higher: -0.00266 for the first, -0.062 for the second.

Going from PDXK_O00764_5_MEEECR (UniProt O00764) to “PPIB_P23284_202_DVIIADCGKIEVEKPFAIAK (UniProt P23284)”, the “probe-labelled cysteine peptide fold change” value falls from 0.121 to -0.589.

First: PPP4R2_Q9NY27_22+30_EVCPVLDQFLCHVAK (UniProt Q9NY27)
Second: PPP6R1_Q9UPN7_216_DENQHSNASQSLCDIIR (UniProt Q9UPN7)
The “probe-labelled cysteine peptide fold change” value of the first is lower: -0.258 for the first, -0.0457 for the second.

First: PREX1_Q8TCU6_1173_DSYSECNSNR (UniProt Q8TCU6)
Second: PHIP_Q8WWQ0_522_CSPDGQHFACTDSHGHLLIFGFGSSSK (UniProt Q8WWQ0)
The “probe-labelled cysteine peptide fold change” value of the first is higher: 0.807 for the first, 0.0548 for the second.

Compared with “PPP6R1_Q9UPN7_172_LLTCVERPQLR (UniProt Q9UPN7)”, “POLD1_P28340_1058_LWTQCQR (UniProt P28340)” is higher in “probe-labelled cysteine peptide fold change” value: 0.288 for the first, 0.291 for the second.

Going from “PELO_Q9BRX2_175_GNCSQHDR (UniProt Q9BRX2)” to “PLA2G4A_P47712_634_DCPTIIHFVLANINFR (UniProt P47712)”, the “probe-labelled cysteine peptide fold change” value falls from 0.165 to -0.0909.

In the case of “PRSS12_P56730_739_LQGPEEQCAR (UniProt P56730)”, the “probe-labelled cysteine peptide fold change” value is reported as 0.0478.
